This is one part of the list. The data describe in vitro nicking of single-stranded DNA by Rep domains for 1 h at 37 °C with 3 µM enzyme; only the middle of the 90-letter strands is printed. Values are log2 of uncut reads against the no-enzyme pool; more negative means more cut, near 0 not cut, and no call is made. Shares of all reads are compared; where an enzyme cuts many sequences, the uncut ones exceed 0.
How the values were obtained:
Test in all cases: uncleaved DNA left, log2 of reads against the no-enzyme library (log2 ratio); higher = less cleavage (more negative = more Rep cleavage of the k-mer); sequences stand for … in CTCGTCCG…ACCGGAGA
[1] = test system: T1, Rep nickase domain of Muscovy duck circovirus
T1 sequence (residues 1-111 of Rep, tag left off): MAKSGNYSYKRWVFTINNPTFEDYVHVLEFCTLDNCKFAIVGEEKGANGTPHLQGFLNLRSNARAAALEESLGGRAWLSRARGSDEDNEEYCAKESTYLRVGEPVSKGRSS
Protocol: (§1)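 A pool of 90-nt single-stranded DNAs with seven random bases just before the constant AC of the nick site (name = the seven bases) was cut by 3 µM recombinant His6-SUMO-tagged Rep nickase domain (300 nM DNA, 50 mM HEPES pH 8.0, 50 mM NaCl, 1 mM MnCl2, 1 h, 37 °C, three replicates). Uncut DNA was amplified and sequenced.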

[2] = test system: T2, Rep nickase domain of banana bunchy top virus
T2 sequence (residues 1-94 of Rep, tag left off): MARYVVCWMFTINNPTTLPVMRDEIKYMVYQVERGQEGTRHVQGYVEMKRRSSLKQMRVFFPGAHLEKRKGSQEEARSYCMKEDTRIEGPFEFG
Protocol: as §1

[3] = test system: T3, Rep nickase domain of cabbage leaf curl virus
T3 sequence (residues 1-116 of Rep, tag left off): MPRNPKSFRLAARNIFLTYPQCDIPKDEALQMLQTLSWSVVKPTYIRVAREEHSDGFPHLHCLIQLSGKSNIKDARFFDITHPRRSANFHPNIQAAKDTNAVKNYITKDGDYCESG
Protocol: as §1

[4] = test system: T4, Rep nickase domain of chickpea chlorotic dwarf virus
T4 sequence (residues 1-124 of Rep, tag left off): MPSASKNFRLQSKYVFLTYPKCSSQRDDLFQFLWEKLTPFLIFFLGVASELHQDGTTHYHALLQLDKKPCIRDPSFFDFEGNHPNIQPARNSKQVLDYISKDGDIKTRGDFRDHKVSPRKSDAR
Protocol: as §1

[5] = test system: T5, Rep nickase domain of faba bean necrotic yellows virus
T5 sequence (residues 1-98 of Rep, tag left off): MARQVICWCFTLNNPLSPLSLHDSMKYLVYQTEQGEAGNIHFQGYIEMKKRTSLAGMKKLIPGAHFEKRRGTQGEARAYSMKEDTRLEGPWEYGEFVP
Protocol: as §1

[6] = test system: T6, Rep nickase domain of maize striate mosaic virus
T6 sequence (residues 1-117 of Rep, tag left off): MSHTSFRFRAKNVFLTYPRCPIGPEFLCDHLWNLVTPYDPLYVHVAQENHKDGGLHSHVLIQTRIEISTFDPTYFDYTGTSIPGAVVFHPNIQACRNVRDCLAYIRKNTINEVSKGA
Protocol: as §1

[7] = test system: T7, Rep nickase domain of porcine circovirus 2
T7 sequence (residues 2-116 of Rep, tag left off): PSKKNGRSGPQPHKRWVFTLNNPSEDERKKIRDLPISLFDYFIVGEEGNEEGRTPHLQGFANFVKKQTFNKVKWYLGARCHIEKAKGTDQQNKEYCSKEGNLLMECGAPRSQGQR
Protocol: as §1

[8] = test system: T8, Rep nickase domain of tomato yellow leaf curl virus
T8 sequence (residues 1-136 of Rep, tag left off): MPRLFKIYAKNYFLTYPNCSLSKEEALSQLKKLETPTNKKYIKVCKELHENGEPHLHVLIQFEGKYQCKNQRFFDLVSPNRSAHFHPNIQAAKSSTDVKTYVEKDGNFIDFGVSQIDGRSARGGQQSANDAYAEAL
Protocol: as §1

[9] = test system: T9, Rep nickase domain of wheat dwarf virus
T9 sequence (residues 1-137 of Rep, tag left off): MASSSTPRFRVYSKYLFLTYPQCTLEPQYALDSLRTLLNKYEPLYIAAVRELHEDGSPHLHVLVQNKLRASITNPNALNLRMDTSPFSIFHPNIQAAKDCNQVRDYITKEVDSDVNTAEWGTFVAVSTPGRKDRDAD
Protocol: as §1

| Sequence | uncleaved DNA left (log2) [1] | uncleaved DNA left (log2) [2] | uncleaved DNA left (log2) [3] | uncleaved DNA left (log2) [4] | uncleaved DNA left (log2) [5] | uncleaved DNA left (log2) [6] | uncleaved DNA left (log2) [7] | uncleaved DNA left (log2) [8] | uncleaved DNA left (log2) [9] |
| --- | --- | --- | --- | --- | --- | --- | --- | --- | --- |
| GCCCGCT | -0.118 | -0.0882 | -0.152 | -0.334 | -0.0752 | -0.658 | -0.109 | -0.101 | 0.0182 |
| TGACGGG | -0.184 | -0.0933 | -0.0874 | -0.0925 | -0.15 | -0.28 | 0.0302 | -0.107 | -0.111 |
| GCTCAAA | -0.0204 | -0.00763 | 0.173 | 0.595 | -0.106 | 0.375 | 0.119 | 0.0568 | 0.115 |
| GCATAAT | -1.77 | 0.0362 | -0.0125 | -0.375 | 0.11 | -0.0557 | -2.68 | 0.146 | 0.016 |
| AGGGAAG | 0.143 | 0.0723 | -0.16 | 0.0672 | 0.117 | -0.687 | 0.12 | -0.0205 | 0.0638 |
| CTGCATG | 0.117 | -0.0268 | -0.661 | -0.53 | -0.0409 | -1.11 | 0.135 | -0.00605 | -0.0848 |
| CAGGTGG | -0.143 | -0.0407 | -0.335 | -0.0423 | -0.128 | -0.649 | 0.0712 | -0.113 | -0.108 |
| CTCGACC | -0.0571 | -0.0593 | -0.109 | -0.156 | -0.029 | -0.553 | -0.169 | 0.00602 | -0.139 |
| GAGCTCT | -0.0385 | 0.0708 | 0.0829 | -1.66 | -0.148 | 0.778 | -2.51 | 0.0843 | 0.0539 |
| TGTGGAG | 0.163 | -0.0274 | -0.525 | -0.232 | 0.038 | -0.728 | 0.184 | 0.114 | -0.0615 |
| TTCCTTA | -0.123 | -0.171 | -0.055 | -0.906 | -0.0572 | -0.0823 | -0.201 | -0.111 | -0.122 |
| GTGACGA | 0.0353 | 0.126 | 0.641 | 1.69 | -0.0655 | 1.97 | 0.159 | 0.0564 | 0.0848 |
| ACTCAGG | -0.0358 | 0.0285 | -0.248 | -0.0754 | 0.102 | -0.892 | 0.18 | -0.00792 | -0.0276 |
| GTGAGAC | 0.191 | 0.166 | 0.593 | 1.22 | 0.164 | 2.03 | 0.218 | 0.179 | 0.229 |
| TGTAATA | 0.056 | 0.112 | 0.13 | -0.359 | 0.011 | 0.509 | 0.00934 | 0.127 | 0.131 |
| TTGACGG | -0.00606 | 0.0199 | 0.497 | 1.36 | -0.00085 | 1.84 | 0.22 | 0.0599 | 0.161 |
| TTAGGGA | 0.0256 | 0.0568 | 0.366 | 0.844 | 0.0706 | 0.801 | 0.0834 | 0.0291 | 0.0088 |
| TCCCGCG | -0.0237 | -0.0196 | -0.669 | 0.444 | -0.00161 | -0.714 | 0.0219 | -0.0775 | -0.221 |
| TTATTCT | -3.62 | -0.0387 | -3.22 | -3.03 | -0.062 | -1.27 | -3.06 | -0.0961 | -1.22 |
| GGACATA | 0.0781 | 0.123 | 0.983 | 2.09 | 0.0242 | 2.32 | 0.239 | 0.0946 | 0.24 |
| CTCCACT | 0.0546 | -0.00474 | -0.194 | -2.14 | 0.157 | -0.629 | -0.197 | 0.00313 | 0.0787 |
| CGACCCC | -0.00591 | -0.086 | 0.261 | 0.565 | -0.054 | 0.529 | -0.0446 | 0.0476 | 0.182 |
| TGGTTGT | -0.126 | -0.123 | -0.00853 | -0.096 | 0.00859 | -0.421 | -0.904 | -0.00446 | -0.0265 |
| TTTCACC | -0.0571 | 0.0318 | 0.0808 | -0.344 | -0.0373 | -0.166 | -0.303 | 0.00963 | -0.0341 |
| ATAATCC | 0.0513 | -0.00873 | 0.326 | 0.0458 | -0.0309 | -0.5 | 0.0842 | -0.0225 | 0.105 |
| CGCTTCC | -0.107 | -0.0781 | 0.0973 | -0.0907 | -0.0883 | -0.343 | -0.154 | -0.0146 | -0.0803 |
| TCATTGT | -0.233 | -0.0264 | -1.03 | -1.26 | -0.0707 | -1.25 | -0.099 | -0.0196 | -0.205 |
| GCGAAGA | 0.119 | 0.0828 | 0.217 | 0.488 | 0.0229 | 0.00552 | 0.158 | 0.0252 | -0.0112 |
| AATGGAG | 0.0197 | -0.199 | -0.461 | -0.231 | 0.118 | -0.875 | 0.144 | -0.0634 | -0.0785 |
| AGAATCA | 0.00826 | 0.0663 | 0.43 | 0.525 | 0.0075 | 0.813 | 0.0578 | 0.0759 | 0.266 |

— the supplement of paper PMC7826260
